# From PubChem BioAssay (Tox21)
# Where “and” joins values, the source holds several entries; their conditions need not be identical. Identical values can stand only once. The inconclusive results got no clear call from the source; some entries with a clear call stand among them for comparison. For part of these data: Where the call is inconclusive, the potency comes from a doubtful curve fit. Some compounds were tested as several samples or in several runs, with calls that do not always agree. Calls of active or inactive are those of the source. Unless noted, calls come from the whole dose curve; as a rule, active = well fitted curve in the direction sought with a large enough effect in the repeat runs; inconclusive = weak or mixed curves; inactive = no such curve, though single readings can be large; an effect the other way counts as inactive or inconclusive.
# What was measured:
# [1] = qHTS assay for identifying genotoxic compounds that show differential cytotoxicity against isogenic chicken DT40 cell lines with known DNA damage response pathways - Rev3 mutant cell line (AID 743014); conditions: chicken DT40 Rev3-/- viability, CellTiter-Glo, 40 h; activity, negative = cytotoxicity: at 68.4 µM (top of the series); note: nearly all actives have a fitted effect of over 55% in size; note: potency is the fitted concentration of half-maximal effect
# [2] = qHTS assay for small molecule agonists of the antioxidant response element (ARE) signaling pathway (AID 743202; active = well fitted activation curve with a large enough effect in the signal ratio in the repeat runs, not every such curve was filed as active; inconclusive = weak or mixed curves, or effect the other way; inactive = no such curve, though single readings can be large or run the other way; the % refers to the signal ratio; note: % is set by controls: 0 for no effect and ±100 for the full control effect); conditions: HepG2 ARE-bla reporter, beta-lactamase FRET, 16 h; activation: at 73.3 µM (top of the series) unless noted
# Method in brief: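 Agonist mode reporter screen: HepG2 cells with ARE-controlled beta-lactamase are incubated with test compounds for 16 h at 37 C, and beta-lactamase activity is measured as fluorescence of cleaved B/G FRET substrate.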
# [3] = qHTS assay to identify small molecule antagonists of the peroxisome proliferator-activated receptor delta (PPARd) signaling pathway - cell viability counter screen (AID 743213); conditions: PPARd-bla HEK293H viability, CellTiter-Glo luminescence, 17 h; viability change, negative = cytotoxic: at 62 µM (top of the series) unless noted; note: nearly all actives have a fitted effect of over 50% in size; note: potency is the fitted concentration of half-maximal effect
# Method in brief: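 HEK293H PPARd UAS-bla cells, 5 h pre-incubation, compound + L165041 300 nM final, 17 h 37 C; B/G FRET substrate 2 h RT; then CellTiter-Glo 30 min RT, luminescence.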
# [4] = qHTS assay to identify small molecule agonists of the farnesoid-X-receptor (FXR) signaling pathway - cell viability counter screen (AID 743218); conditions: FXR-bla HEK293T viability, CellTiter-Glo luminescence, 16 h; viability change, negative = cytotoxic: at 62.6 µM (top of the series); note: potency is the fitted concentration of half-maximal effect; nearly all actives have a fitted effect of over 45% in size
# Method in brief: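 After 16 h at 37 C with test compounds, FXR-bla HEK 293T cells were given LiveBLAzer B/G substrate for 2 h at RT and then CellTiter-Glo; luminescence was taken after 30 min.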
# [5] = qHTS assay to identify small molecule antagonists of the sonic hedgehog signaling (Shh) pathway (AID 1259369; calls by dose curve; note: nearly all actives have a fitted effect of over 45% in size; note: potency is the fitted concentration of half-maximal effect; for activity change, negative = inhibition: % is set by controls: 0 for no effect and ±100 for the full control effect)
# Method in brief: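 Conditioned medium drives Shh signalling in 3T3Gli1-Luc cells; compounds in DMSO co-applied, 24hr at 37 C, then luciferase luminescence.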
# [6] = biological target: Estrogen receptor beta (Homo sapiens) (UniProt Q92731); test: qHTS assay to identify small molecule antagonists of the estrogen receptor beta (ER-beta) signaling pathway (AID 1259378; active = well fitted inhibition curve with a large enough effect in the signal ratio in the repeat runs, not every such curve was filed as active; inconclusive = weak or mixed curves, or effect the other way; inactive = no such curve, though single readings can be large or run the other way; the % refers to the signal ratio; note: potency is the fitted concentration of half-maximal effect; for activity, negative = inhibition: % is set by controls: 0 for no effect and ±100 for the full control effect); conditions: ER-beta-UAS-bla HEK293T, beta-lactamase FRET ratio, 16 h; activity, negative = inhibition: at 92.4 µM (top of the series) unless noted
# Method in brief: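 ER-beta-UAS-bla HEK293T cells in 2% charcoal-stripped FBS medium treated with compound plus 1nM final 17-beta-estradiol for 16 hr at 37C. Beta-lactamase reporter read by FRET substrate fluorescence after 2 hours at room temperature.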
# [7] = biological target: Progesterone receptor (Homo sapiens) (UniProt P06401); test: qHTS assay to identify small molecule antagonists of the progesterone receptor (PR) signaling pathway (AID 1346795; active = well fitted inhibition curve with a large enough effect in the signal ratio in the repeat runs, not every such curve was filed as active; inconclusive = weak or mixed curves; the % refers to the signal ratio; note: potency is the fitted concentration of half-maximal effect); conditions: PR-UAS-bla HEK293T, beta-lactamase FRET ratio, 16 h; activity change, negative = inhibition: at 92.4 µM (top of the series) unless noted
# Method in brief: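 Read-out is fluorescence from the LiveBLAzer B/G FRET substrate, cleaved by a UAS-controlled beta-lactamase in PR-UAS-bla HEK293T cells after 16 hr exposure to compound plus 1 nM promegestone (final), followed by 2 hr at room temperature.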
# [8] = qHTS assay to identify small molecule agonists of the progesterone receptor (PR) signaling pathway - cell viability counter screen (AID 1346799; calls by dose curve; note: nearly all actives have a fitted effect of over 45% in size; note: potency is the fitted concentration of half-maximal effect)
# Method in brief: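 Luminescence from CellTiter-Glo, added after the beta-lactamase FRET read in the same wells, gave cytotoxicity in PR-UAS-bla HEK293T cells treated with compounds for 16 hr at 37C.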
# [9] = biological target: Cytochrome P450 2C19 (Homo sapiens) (UniProt P33261); test: Cytochrome P450 Family 2 Subfamily C Member 19 (CYP2C19) small molecule antagonists: luciferase reporter qHTS assay (AID 1671197); note: nearly all actives have a fitted effect of over 65% in size; note: potency is the fitted concentration of half-maximal effect
# Method in brief: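 CYP2C19 P450-Glo, 1536-well qHTS. Cpd + enzyme/proluciferin substrate 10 min RT; + NADPH regen, 37C 1 h; stop with luciferin detection reagent, 20 min RT, luminescence (RLU). Pos ctrl ketoconazole.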
# [10] = biological target: Cytochrome P450 2C9 (Homo sapiens) (UniProt P11712); test: Cytochrome P450 Family 2 Subfamily C Member 9 (CYP2C9) small molecule antagonists: luciferase reporter qHTS assay (AID 1671198); note: nearly all actives have a fitted effect of over 50% in size; note: potency is the fitted concentration of half-maximal effect
# Method in brief: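 P450-Glo proluciferin substrate with CYP2C9 enzyme; 10 min RT preincubation, then NADPH regeneration 1 h at 37C; luciferin detection reagent 20 min RT, luminescence in relative luminescence units.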
# [11] = biological target: Cytochrome P450 1A2 (Homo sapiens) (UniProt P05177); test: Cytochrome P450 Family 1 Subfamily A Member 2 (CYP1A2) small molecule antagonists: luciferase reporter qHTS assay (AID 1671199); note: nearly all actives have a fitted effect of over 50% in size; note: potency is the fitted concentration of half-maximal effect
# Method in brief: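 CYP1A2 turnover of a luminogenic substrate was quantified after 1 h with NADPH regeneration at room temperature. Furafylline served as positive control.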
# [12] = qHTS assay for small molecule disruptors of the mitochondrial membrane potential (AID 720635); conditions: HepG2 mitochondrial membrane potential, Mito-MPS dye ratio; ratio activity, negative = MMP loss: at 83.2 µM (top of the series) unless noted; note: potency is the fitted concentration of half-maximal effect
# Method in brief: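 HepG2 cells exposed to compound 1 hr at 37C, then Mito-MPS dye 30 min. Ratio read of aggregate (540/590 nm) versus monomer (490/535 nm) fluorescence.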
# [13] = qHTS assay to identify small molecule antagonists of the thyroid receptor (TR) signaling pathway - cell viability counter screen (AID 743064); conditions: GH3.TRE-Luc viability, CellTiter-Fluor, 24 h; activity change, negative = cytotoxic: at 70.3 µM (top of the series) unless noted; note: nearly all actives have a fitted effect of over 50% in size; note: potency is the fitted concentration of half-maximal effect
# Method in brief: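 Fluorescence from CellTiter-Fluor, added after 23.5 h exposure at 37 °C, reported viability of GH3.TRE-Luc cells co-treated with compound and 1 nM T3. Measured in the same wells as the luciferase TR readout.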
# [14] = qHTS assay to identify small molecule agonists of the RXR signaling pathway - cell viability counter screen (AID 1159529); note: nearly all actives have a fitted effect of over 50% in size; note: potency is the fitted concentration of half-maximal effect
# Method in brief: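 HEK 293T RXRa-bla cells, 2% CS-FBS; 5 h settle; cpd 16 h 37 C, 5% CO2; CellTiter-Glo 30 min RT, luminescence. Tetraoctyl ammonium bromide as positive control.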
# [15] = biological target: Peroxisome proliferator-activated receptor gamma (Homo sapiens) (UniProt P37231); test: qHTS assay to identify small molecule antagonists of the peroxisome proliferator-activated receptor gamma (PPARg) signaling pathway (AID 743191; calls by dose curve; note: nearly all actives have a fitted effect of over 30% in size; note: potency is the fitted concentration of half-maximal effect); conditions: HEK293H PPARg-UAS-bla, beta-lactamase ratio, antagonist, 17 h; ratio activity, negative = inhibition: at 62.6 µM (top of the series) unless noted
# Method in brief: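 GeneBLAzer PPARg UAS-bla HEK293H cells, 5 h post-plating, exposed to compounds 17 h at 37C. LiveBLAzer B/G FRET substrate added for 1 h at room temperature; beta-lactamase reporter read by fluorescence intensity.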
# [16] = biological target: Vitamin D3 receptor (Homo sapiens) (UniProt P11473); test: qHTS assay to identify small molecule antagonists of the vitamin D receptor (VDR) signaling pathway (AID 743223; active = well fitted inhibition curve with a large enough effect in the signal ratio in the repeat runs, not every such curve was filed as active; inconclusive = weak or mixed curves, or effect the other way; inactive = no such curve, though single readings can be large or run the other way; the % refers to the signal ratio; note: % is set by controls: 0 for no effect and ±100 for the full control effect); conditions: VDR-UAS-bla HEK293T, beta-lactamase FRET ratio, 16 h; activity change, negative = inhibition: at 61 µM (top of the series) unless noted
# Method in brief: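 Antagonist mode uses 1alpha,25-dihydroxyvitamin D3 at 3 nM final as stimulus. VDR-bla cells receive compounds in DMSO, incubate 16 h at 37C, then a beta-lactamase FRET substrate for 2 h at room temperature before fluorescence measurement.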
# [17] = biological target: Glucocorticoid receptor (Homo sapiens) (UniProt P04150); test: qHTS assay to identify small molecule antagonists of the glucocorticoid receptor (GR) signaling pathway (AID 720692; active = well fitted inhibition curve with a large enough effect in the signal ratio in the repeat runs, not every such curve was filed as active; inconclusive = weak or mixed curves, or effect the other way; inactive = no such curve, though single readings can be large or run the other way; the % refers to the signal ratio; note: potency is the fitted concentration of half-maximal effect); conditions: GR-bla HeLa, beta-lactamase FRET ratio, dexamethasone-stimulated, 18 h; activity change, negative = inhibition: at 58.5 µM (top of the series) unless noted
# Method in brief: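 Dexamethasone (5 nM final) stimulated a stably integrated GRE-beta-lactamase reporter in HeLa cells during 18 h co-incubation with compounds; signal was quantified as fluorescence intensity of B/G FRET substrate after 2 h.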
# [18] = biological target: Cytochrome P450 2D6 (Homo sapiens) (UniProt P10635); test: Cytochrome P450 Family 2 Subfamily D Member 6 (CYP2D6) small molecule antagonists: luciferase reporter qHTS assay (AID 1671196); note: nearly all actives have a fitted effect of over 50% in size; note: potency is the fitted concentration of half-maximal effect
# Method in brief: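 Luminescence (RLU), read 20 min after detection reagent, indicated CYP2D6 conversion of proluciferin to luciferin during a 1 h NADPH-dependent reaction at room temperature.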
# [19] = qHTS assay to identify small molecule antagonists of the progesterone receptor (PR) signaling pathway - cell viability counter screen (AID 1346798)
# Method in brief: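 HEK293T PR-UAS-bla, 2% charcoal-stripped FBS; 4 hr pre-plate; cpd + R5020, 16 h 37C; LiveBLAzer read first; then CellTiter-Glo 30 min RT, luminescence.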
# Tags give direction and shape of the fitted curve or compound fluorescence and quenching.
# UniProt P11712, sequence (P11712 whole entry, looked up): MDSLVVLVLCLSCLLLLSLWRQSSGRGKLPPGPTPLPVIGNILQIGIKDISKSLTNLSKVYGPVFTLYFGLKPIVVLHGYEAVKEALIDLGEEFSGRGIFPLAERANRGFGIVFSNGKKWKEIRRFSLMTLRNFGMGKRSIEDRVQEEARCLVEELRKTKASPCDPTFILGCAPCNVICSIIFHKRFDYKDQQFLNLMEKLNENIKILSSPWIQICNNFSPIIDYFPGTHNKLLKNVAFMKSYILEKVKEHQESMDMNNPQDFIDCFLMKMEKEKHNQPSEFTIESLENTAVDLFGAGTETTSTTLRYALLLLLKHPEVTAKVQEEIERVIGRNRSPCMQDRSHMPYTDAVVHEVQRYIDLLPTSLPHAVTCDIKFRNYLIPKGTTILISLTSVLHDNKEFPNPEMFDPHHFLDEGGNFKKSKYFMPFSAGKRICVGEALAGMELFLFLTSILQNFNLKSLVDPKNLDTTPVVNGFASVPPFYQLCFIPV
# UniProt P37231, sequence (P37231 whole entry, looked up): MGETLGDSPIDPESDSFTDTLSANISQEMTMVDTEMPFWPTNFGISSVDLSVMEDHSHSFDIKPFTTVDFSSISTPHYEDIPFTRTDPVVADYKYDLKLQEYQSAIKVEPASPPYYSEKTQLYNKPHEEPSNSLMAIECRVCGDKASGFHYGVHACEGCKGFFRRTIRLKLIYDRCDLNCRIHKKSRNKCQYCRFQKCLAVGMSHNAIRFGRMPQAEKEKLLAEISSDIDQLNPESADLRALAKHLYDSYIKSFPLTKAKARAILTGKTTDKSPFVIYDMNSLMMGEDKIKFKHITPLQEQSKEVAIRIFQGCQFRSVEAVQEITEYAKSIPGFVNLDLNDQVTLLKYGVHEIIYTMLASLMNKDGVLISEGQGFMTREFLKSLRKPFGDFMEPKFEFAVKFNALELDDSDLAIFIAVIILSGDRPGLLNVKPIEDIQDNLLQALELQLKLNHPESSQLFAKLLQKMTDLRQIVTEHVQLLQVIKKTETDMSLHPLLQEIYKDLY
# UniProt P11473, sequence (P11473 whole entry, looked up): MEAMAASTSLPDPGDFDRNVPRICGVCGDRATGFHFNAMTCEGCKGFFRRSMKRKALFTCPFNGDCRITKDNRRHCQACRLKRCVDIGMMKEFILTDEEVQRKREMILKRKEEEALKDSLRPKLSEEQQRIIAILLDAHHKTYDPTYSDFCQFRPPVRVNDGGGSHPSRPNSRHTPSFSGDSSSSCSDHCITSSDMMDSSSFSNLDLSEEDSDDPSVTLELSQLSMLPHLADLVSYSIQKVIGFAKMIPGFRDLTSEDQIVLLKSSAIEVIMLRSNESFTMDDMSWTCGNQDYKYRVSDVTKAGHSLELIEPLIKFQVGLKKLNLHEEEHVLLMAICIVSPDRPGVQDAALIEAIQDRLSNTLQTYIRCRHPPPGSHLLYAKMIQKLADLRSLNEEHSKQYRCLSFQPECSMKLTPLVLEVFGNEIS
# UniProt P33261, sequence (P33261 whole entry, looked up): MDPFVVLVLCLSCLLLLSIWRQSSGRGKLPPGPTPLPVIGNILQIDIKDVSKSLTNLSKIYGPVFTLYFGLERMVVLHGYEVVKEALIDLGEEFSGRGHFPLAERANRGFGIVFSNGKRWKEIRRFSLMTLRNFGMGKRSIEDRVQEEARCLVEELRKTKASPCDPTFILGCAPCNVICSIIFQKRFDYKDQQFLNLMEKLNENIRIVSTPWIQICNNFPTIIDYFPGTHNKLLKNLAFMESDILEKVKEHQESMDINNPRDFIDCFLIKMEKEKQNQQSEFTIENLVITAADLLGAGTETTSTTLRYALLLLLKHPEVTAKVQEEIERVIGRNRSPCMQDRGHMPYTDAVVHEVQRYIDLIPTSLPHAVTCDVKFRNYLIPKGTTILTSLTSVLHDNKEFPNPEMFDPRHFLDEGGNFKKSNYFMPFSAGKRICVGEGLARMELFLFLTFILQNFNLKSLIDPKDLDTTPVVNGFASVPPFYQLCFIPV
# UniProt Q92731, sequence (Q92731 whole entry, looked up): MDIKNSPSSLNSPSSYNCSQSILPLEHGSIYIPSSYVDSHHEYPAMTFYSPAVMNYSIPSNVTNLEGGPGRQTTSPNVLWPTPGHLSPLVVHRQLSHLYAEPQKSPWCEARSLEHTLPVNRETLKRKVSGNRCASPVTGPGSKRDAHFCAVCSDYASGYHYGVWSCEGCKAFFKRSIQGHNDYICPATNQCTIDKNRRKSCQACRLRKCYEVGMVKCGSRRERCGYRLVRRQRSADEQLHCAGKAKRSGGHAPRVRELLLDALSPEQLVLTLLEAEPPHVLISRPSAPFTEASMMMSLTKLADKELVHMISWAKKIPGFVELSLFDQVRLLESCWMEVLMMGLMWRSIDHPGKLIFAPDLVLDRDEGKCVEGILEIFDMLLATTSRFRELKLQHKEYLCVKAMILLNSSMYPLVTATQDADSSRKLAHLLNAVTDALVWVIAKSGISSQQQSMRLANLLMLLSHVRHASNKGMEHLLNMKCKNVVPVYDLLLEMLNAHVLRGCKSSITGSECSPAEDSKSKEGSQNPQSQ
# UniProt P06401, sequence (P06401 whole entry, looked up): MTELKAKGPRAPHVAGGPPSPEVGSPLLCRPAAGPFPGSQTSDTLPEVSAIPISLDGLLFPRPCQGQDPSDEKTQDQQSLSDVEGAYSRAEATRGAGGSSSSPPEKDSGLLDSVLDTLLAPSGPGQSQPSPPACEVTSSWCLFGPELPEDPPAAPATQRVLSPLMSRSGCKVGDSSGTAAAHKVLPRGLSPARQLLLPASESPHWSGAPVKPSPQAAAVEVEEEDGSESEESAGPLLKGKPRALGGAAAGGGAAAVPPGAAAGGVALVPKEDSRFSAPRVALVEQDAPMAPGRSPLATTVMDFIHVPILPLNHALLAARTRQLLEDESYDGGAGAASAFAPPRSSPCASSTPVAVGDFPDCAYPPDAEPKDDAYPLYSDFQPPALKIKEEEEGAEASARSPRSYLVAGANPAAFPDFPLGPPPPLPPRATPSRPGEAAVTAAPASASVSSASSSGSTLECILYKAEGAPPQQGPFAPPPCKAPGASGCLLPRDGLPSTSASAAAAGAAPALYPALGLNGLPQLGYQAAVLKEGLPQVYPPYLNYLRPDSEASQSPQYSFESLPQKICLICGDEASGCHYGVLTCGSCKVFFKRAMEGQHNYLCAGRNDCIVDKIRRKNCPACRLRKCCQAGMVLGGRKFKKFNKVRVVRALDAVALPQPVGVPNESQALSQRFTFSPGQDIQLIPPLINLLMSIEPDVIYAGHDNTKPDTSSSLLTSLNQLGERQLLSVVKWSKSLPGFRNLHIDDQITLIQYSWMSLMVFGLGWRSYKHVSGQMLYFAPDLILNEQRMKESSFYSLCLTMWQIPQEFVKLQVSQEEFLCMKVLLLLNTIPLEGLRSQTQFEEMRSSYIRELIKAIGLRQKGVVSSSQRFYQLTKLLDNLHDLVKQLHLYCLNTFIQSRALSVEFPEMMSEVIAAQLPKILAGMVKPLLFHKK
# UniProt P10635, sequence (P10635 whole entry, looked up): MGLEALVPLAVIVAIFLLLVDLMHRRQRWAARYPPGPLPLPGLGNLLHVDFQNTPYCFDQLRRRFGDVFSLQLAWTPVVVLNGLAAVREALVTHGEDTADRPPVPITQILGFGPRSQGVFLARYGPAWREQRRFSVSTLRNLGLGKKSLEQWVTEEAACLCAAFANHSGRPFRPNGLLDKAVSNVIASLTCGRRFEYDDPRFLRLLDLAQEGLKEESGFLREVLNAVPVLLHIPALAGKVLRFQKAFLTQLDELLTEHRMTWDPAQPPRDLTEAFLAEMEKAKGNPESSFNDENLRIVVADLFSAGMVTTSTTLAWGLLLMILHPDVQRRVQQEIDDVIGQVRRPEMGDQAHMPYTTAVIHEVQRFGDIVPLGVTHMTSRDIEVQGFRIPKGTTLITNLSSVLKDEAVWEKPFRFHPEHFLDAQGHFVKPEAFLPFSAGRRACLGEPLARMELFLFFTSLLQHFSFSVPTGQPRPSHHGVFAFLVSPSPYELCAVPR
# UniProt P05177, sequence (P05177 whole entry, looked up): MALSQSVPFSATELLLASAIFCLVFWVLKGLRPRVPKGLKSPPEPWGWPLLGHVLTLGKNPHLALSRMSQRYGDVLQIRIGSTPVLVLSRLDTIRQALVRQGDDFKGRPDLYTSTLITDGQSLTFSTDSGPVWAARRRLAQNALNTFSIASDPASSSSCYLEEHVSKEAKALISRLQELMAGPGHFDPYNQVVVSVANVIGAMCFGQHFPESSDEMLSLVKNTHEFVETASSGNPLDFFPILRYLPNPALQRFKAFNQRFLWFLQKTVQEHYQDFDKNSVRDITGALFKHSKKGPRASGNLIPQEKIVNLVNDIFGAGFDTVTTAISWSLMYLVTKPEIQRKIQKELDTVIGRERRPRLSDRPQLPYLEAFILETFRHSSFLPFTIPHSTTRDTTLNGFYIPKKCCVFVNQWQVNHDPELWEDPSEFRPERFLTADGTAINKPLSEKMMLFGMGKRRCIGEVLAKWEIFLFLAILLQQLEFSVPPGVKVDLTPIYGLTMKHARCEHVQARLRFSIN
smiles,measurement,setting,value
C=C(C)C(=O)OCC(CC)CCCC (stereo unspecified),Potency,[1],"inconclusive: 69.9 µM [rising, partial curve, poor fit]"
same,activation,[2],inconclusive: -14.2%
same,Potency,[3],"inconclusive: 0.275 µM [cytotoxic, full curve, poor fit]"
same,Potency,[4],"inconclusive: 21.9 µM [rising, single point]"
same,Potency,[5],inactive
same,Potency,[6],"inconclusive: 69.9 µM [inhibitor, single point] and inactive"
same,Potency,[7],"inconclusive: 62.3 µM [rising, single point]"
same,Potency,[8],"inconclusive: 69.9 µM [cytotoxic, single point]"
same,Potency,[9],active: 40.7 µM and inactive
same,Potency,[10],"inconclusive: 64.5 µM [inhibitor, partial curve]"
same,Potency,[11],"inactive and inconclusive: 63.3 µM [inhibitor, partial curve]"
CCOP(=S)(OCC)SCCSCC,Potency,[12],"inconclusive: 25.1 µM [rising, partial curve, poor fit] and inconclusive: 14.6 µM [rising, partial curve, poor fit]"
same,Potency,[1],"inconclusive: 70.8 µM [cytotoxic, single point] and inconclusive: 23.1 µM [cytotoxic, partial curve]"
same,Potency,[13],"inconclusive: 10.3 µM [rising, partial curve, poor fit]"
same,activation,[2],inconclusive: -11.8% [at 34.3 µM]
same,Potency,[14],"inconclusive: 63.6 µM [cytotoxic, partial curve, poor fit]"
same,Potency,[7],inactive
CC1CC(=O)O1 (stereo unspecified),Potency,[15],"inconclusive: 54.9 µM [activator, single point]"
same,Potency,[14],"inconclusive: 54.9 µM [rising, single point]"
same,Potency,[8],inactive
same,Potency,[9],"inconclusive: 95.3 µM [inhibitor, single point]"
same,Potency,[10],inactive
same,Potency,[11],inactive
CCOP(=S)(OCC)SCCl,"activity change, negative = inhibition",[16],inconclusive: 15%
same,Potency,[14],inactive
CC(=O)CN(CC(C)=O)N=O,Potency,[12],"inconclusive: 3.86 µM [inhibitor, partial curve, poor fit]"
same,Potency,[17],"inconclusive: 8.71 µM [activator, partial curve]"
same,Potency,[1],inactive
same,Potency,[15],inactive
same,Potency,[3],inactive
same,Potency,[6],inactive
same,Potency,[8],inactive
same,Potency,[18],inactive
same,Potency,[11],"inconclusive: 39.9 µM [inhibitor, partial curve]"
CNN,Potency,[14],inactive
same,Potency,[18],"inconclusive: 57.1 µM [inhibitor, partial curve]"
CCC(C)(C)c1cc(-n2nc3ccccc3n2)c(O)c(C(C)(C)CC)c1,Potency,[13],inactive
same,"ratio activity, negative = inhibition",[15],inconclusive: 5.75% [at 81.1 µM]
same,Potency,[2],inactive
same,Potency,[16],inactive
same,"activity change, negative = inhibition",[7],inconclusive: 15.6%
same,Potency,[8],"inconclusive: 39.2 µM [cytotoxic, partial curve, poor fit]"
same,Potency,[18],active: 25.6 µM
same,Potency,[10],"inconclusive: 40.5 µM [inhibitor, partial curve]"
CN(C)C(=O)Cl,"ratio activity, negative = MMP loss",[12],inconclusive: 1.9%
same,"ratio activity, negative = inhibition",[15],inconclusive: 22.6%
same,Potency,[2],inactive
same,Potency,[9],"inconclusive: 7.96 µM [inhibitor, single point]"
CC(C)[N+](C)(CCC(C(N)=O)(c1ccccc1)c1ccccc1)C(C)C,"ratio activity, negative = inhibition",[15],inconclusive: 1.04%
same,activation,[2],inconclusive: -1.15%
same,Potency,[4],"inconclusive: 0.473 µM [rising, partial curve, poor fit]"
same,Potency,[11],"inconclusive: 21.9 µM [inhibitor, partial curve]"
CCC(=O)O[C@@H]1C=C2CCC3C(CCC4(C)C3CC[C@@H]4OC(=O)CC)C2CC1 (stereo partly specified),Potency,[2],inactive
same,"activity change, negative = inhibition",[16],inconclusive: -0.934%
same,Potency,[14],"inconclusive: 23.9 µM [cytotoxic, single point]"
same,Potency,[6],"inconclusive: 13.3 µM [activator, partial curve]"
same,Potency,[19],inactive
same,Potency,[8],"inconclusive: 0.237 µM [rising, full curve]"
same,Potency,[9],"inconclusive: 15.5 µM [inhibitor, single point]"
same,Potency,[10],active: 15.5 µM
same,Potency,[11],"inconclusive: 24.5 µM [inhibitor, partial curve, poor fit]"
O=C(Cl)c1ccc(Cl)cc1,Potency,[14],inactive
same,Potency,[7],"inconclusive: 61.1 µM [rising, single point]"
same,Potency,[18],"inconclusive: 25.2 µM [inhibitor, full curve]"
same,Potency,[9],"inconclusive: 79.6 µM [inhibitor, single point]"
same,Potency,[10],"inconclusive: 35.6 µM [inhibitor, partial curve, poor fit]"
COP(=S)(OC)Oc1ccc(S(=O)(=O)N(C)C)cc1,activation,[2],inconclusive: 24.4% and inconclusive: 7.38%
same,Potency,[4],"inconclusive: 34.7 µM [rising, partial curve, poor fit]"
same,"activity change, negative = inhibition",[16],inconclusive: -2.94%
same,Potency,[14],"inconclusive: 10.7 µM [rising, partial curve, poor fit]"
same,Potency,[5],"inconclusive: 54.5 µM [inhibitor, single point] and inactive"
same,Potency,[18],"inconclusive: 34.7 µM [inhibitor, partial curve]"
CC(Oc1cc(Cl)c(Cl)cc1Cl)C(=O)O (stereo unspecified),Potency,[12],"inconclusive: 30.7 µM [rising, partial curve]"
same,Potency,[13],"inconclusive: 77.1 µM [rising, partial curve, poor fit]"
same,Potency,[15],"inconclusive: 21.9 µM [inhibitor, full curve]"
same,activation,[2],inconclusive: 17.5%
same,Potency,[3],"inconclusive: 1.1 µM [cytotoxic, single point]"
same,"activity change, negative = inhibition",[16],inconclusive: 31.7%
same,Potency,[6],inconclusive: 68.7 µM
same,Potency,[8],active: 48.7 µM
same,Potency,[11],"inconclusive: 79.8 µM [inhibitor, partial curve, poor fit]"
